# Experimental data reported in PubChem BioAssay (Tox21).
# Where “and” joins values, the source holds several entries; their conditions need not be identical. Equal values may be shown once. Inconclusive results, whose numbers are uncertain, are shown with a selection of clear calls. A potency beside an inconclusive call is a rough fit, not a confirmed value. A structure can be active in one record and inactive in another. Calls of active or inactive are those of the source. Calls follow the shape of the dose curve; as a rule, active = well fitted curve in the direction sought with a large enough effect in the repeat runs; inconclusive = weak or mixed curves; inactive = no such curve, though single readings can be large; an effect the other way counts as inactive or inconclusive.
# Columns and labels:
# [1] = qHTS RealTime-Glo MT Cell Viability Assay in HepG2 cells - 32 hour (AID 1224877); details: RealTime-Glo luminescence; series mostly up to 76.8 µM; also: nearly all actives have a fitted effect of over 55% in size
# In short: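 Viability was tracked continuously by NanoLuc luminescence from prosubstrate reduced by living HepG2 cells, at successive time points over 40 h of compound exposure. Cells with reagent were preincubated 5 h at 37 °C before compound addition.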
# [2] = A CellTox Green Cytotoxicity Assay to monitor cytotoxicity in HEK293 cells - 8 hour (AID 1224884); details: CellTox Green fluorescence; series mostly up to 76.8 µM; also: nearly all actives have a fitted effect of over 35% in size
# In short: (§1)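 Dead-cell fluorescence measured kinetically: asymmetric cyanine dye, HEK293, 600 cells/well, 5 h settle, 23 nL cpd/DMSO, 37 C, reads 0–40 h every 8 h.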
# [3] = qHTS RealTime-Glo MT Cell Viability Assay in HEK293 cells - 0 hour (AID 1224880); details: RealTime-Glo luminescence; series mostly up to 76.8 µM; also: nearly all actives have a fitted effect of over 45% in size
# In short: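 600 HEK293 cells per well, dispensed already mixed with RealTime-Glo MT reagents. Compound dosing came 5 h later. The same wells were read for luminescence at 0, 8, 16, 24, 32 and 40 h of exposure at 37 C.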
# [4] = A CellTox Green Cytotoxicity Assay to monitor cytotoxicity in HepG2 cells - 24 hour (AID 1224878); details: CellTox Green fluorescence; series mostly up to 76.8 µM; also: nearly all actives have a fitted effect of over 45% in size
# In short: (§2)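 First, HepG2 cells (600/well) mixed with reagent were plated; second, after 5 h at 37 C they received compounds via pintool; third, fluorescence was measured at 0 h through 40 h at 8 h intervals.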
# [5] = A CellTox Green Cytotoxicity Assay to monitor cytotoxicity in HepG2 cells - 40 hour (AID 1224879); details: CellTox Green fluorescence; series mostly up to 76.8 µM; also: nearly all actives have a fitted effect of over 40% in size
# In short: as §2
# [6] = A CellTox Green Cytotoxicity Assay to monitor cytotoxicity in HepG2 cells - 32 hour (AID 1224883); details: CellTox Green fluorescence; series mostly up to 76.8 µM; also: nearly all actives have a fitted effect of over 50% in size
# In short: as §2
# [7] = A CellTox Green Cytotoxicity Assay to monitor cytotoxicity in HEK293 cells - 32 hour (AID 1224881); details: CellTox Green fluorescence; series mostly up to 76.8 µM; also: nearly all actives have a fitted effect of over 40% in size
# In short: as §1
# Potency is read from the fitted curve at half-maximal effect; tags tell the direction and shape of the fitted curve.
structure (smiles),measurement,setting,value
O=C(N[C@@H]1N=C(c2ccccc2F)c2cccc3c2N(CC3)C1=O)c1cc2ccccc2[nH]1,Potency,[1],"inconclusive: 10.7 µM [cytotoxic, partial curve]"
same,Potency,[2],active: 9.52 µM
O=C(O)COc1ccc(Cl)cc1,Potency,[1],inactive
same,Potency,[3],inactive
CCC[CH2][Sn]([CH2]CCC)([O]C(C)=O)[O]C(C)=O,Potency,[4],active: 0.312 µM
[CH3][Hg][Cl],Potency,[1],active: 10.9 µM
CCOC(=O)CC(SP(=S)(OC)OC)C(=O)OCC (configuration not stated),Potency,[1],"inconclusive: 54.9 µM [cytotoxic, single point]"
same,Potency,[4],"inconclusive: 21.9 µM [activator, single point]"
same,Potency,[5],"inconclusive: 24.5 µM [activator, single point] and inactive"
same,Potency,[6],"inconclusive: 24.5 µM [activator, single point]"
COc1cc(OC)c(OC)cc1C=O,Potency,[4],inactive
COc1ccc(C(CN(C)C)C2(O)CCCCC2)cc1 (configuration not stated),Potency,[1],"inconclusive: 21.9 µM [cytotoxic, single point]"
CCCC[n+]1cccc(C)c1,Potency,[1],active: 55.7 µM
same,Potency,[5],inactive
same,Potency,[3],inactive
CCCCOCN(C(=O)CCl)c1c(CC)cccc1CC,Potency,[1],"inconclusive: 43.6 µM [cytotoxic, partial curve, poor fit]"
same,Potency,[5],"inconclusive: 49 µM [activator, single point]"
C#CCOS(=O)OC1CCCCC1Oc1ccc(C(C)(C)C)cc1 (configuration not stated),Potency,[1],"inconclusive: 19.5 µM [cytotoxic, partial curve, poor fit] and inconclusive: 11 µM [cytotoxic, full curve]"
same,Potency,[7],"inconclusive: 21.9 µM [activator, partial curve]"
CN1CCc2cc3c(cc2C1O)OCO3 (configuration not stated),Potency,[4],inactive
CC(C)(c1ccc(OCC2CO2)cc1)c1ccc(OCC2CO2)cc1 (configuration not stated),Potency,[1],inactive
same,Potency,[2],inactive
C=C(C)C(=O)[O][Sn]([CH2]CCC)([CH2]CCC)[CH2]CCC,Potency,[1],active: 0.245 µM
same,Potency,[5],active: 0.389 µM
same,Potency,[2],active: 11 µM
OC(c1ccc(Cl)cc1)(c1ccc(Cl)cc1)c1cccnc1,Potency,[1],"inconclusive: 54.9 µM [cytotoxic, partial curve, poor fit]"
O=S1(=O)OCC2C(CO1)C1(Cl)C(Cl)=C(Cl)C2(Cl)C1(Cl)Cl (configuration not stated),Potency,[1],"inconclusive: 49 µM [cytotoxic, partial curve, poor fit]"
same,Potency,[5],"inconclusive: 54.9 µM [activator, single point]"
same,Potency,[6],"inconclusive: 61.6 µM [activator, single point]"
Clc1ccc(-c2ccc(Cl)c(Cl)c2Cl)c(Cl)c1Cl,Potency,[4],inactive
CCC(C)c1cc([N+](=O)[O-])cc([N+](=O)[O-])c1OC(=O)C=C(C)C (configuration not stated),Potency,[1],active: 49 µM
same,Potency,[5],"inconclusive: 54.9 µM [activator, single point]"
same,Potency,[6],"inconclusive: 49 µM [activator, single point]"
O=C(CCl)CCl,Potency,[1],"inconclusive: 45.3 µM [cytotoxic, partial curve]"
same,Potency,[4],"inconclusive: 61.6 µM [activator, partial curve, poor fit]"
same,Potency,[5],"active: 25.5 µM and inconclusive: 54.9 µM [activator, single point]"
same,Potency,[6],"inconclusive: 54.9 µM [activator, single point]"
same,Potency,[2],inactive
CCC[CH2][Sn]([CH2]CCC)([CH2]CCC)[O][Sn]([CH2]CCC)([CH2]CCC)[CH2]CCC,Potency,[1],active: 0.537 µM
same,Potency,[5],active: 0.537 µM
same,Potency,[3],"inconclusive: 1.35 µM [rising, full curve]"
same,Potency,[6],active: 0.537 µM
same,Potency,[2],active: 2.14 µM
c1csc(-c2ccc(-c3cccs3)s2)c1,Potency,[1],inactive
O=[N+]([O-])c1ccc(F)c([N+](=O)[O-])c1,Potency,[4],inactive
CN1C(=O)[C@@H](NC(=O)c2cc3ccccc3[nH]2)N=C(c2ccccc2)c2ccccc21,Potency,[1],inactive
Cc1nnc2n1-c1sc(CCc3ccc(CC(C)C)cc3)cc1C(c1ccccc1Cl)=NC2C (configuration not stated),Potency,[1],"inconclusive: 19 µM [cytotoxic, partial curve]"
same,Potency,[5],"inconclusive: 26.8 µM [activator, single point]"
same,Potency,[3],"inconclusive: 26.8 µM [falling, partial curve, poor fit]"
same,Potency,[7],"inconclusive: 21.3 µM [activator, partial curve, poor fit]"
same,Potency,[6],"inconclusive: 26.8 µM [activator, single point]"
O=c1c(C2CC(c3ccc(-c4ccc(Br)cc4)cc3)Cc3ccccc32)c(O)sc2ccccc12 (configuration not stated),Potency,[1],"inconclusive: 21.3 µM [cytotoxic, partial curve, poor fit]"
same,Potency,[3],"inconclusive: 5.35 µM [falling, full curve]"
O=C1C2(Cl)C3(Cl)C4(Cl)C(Cl)(Cl)C5(Cl)C3(Cl)C1(Cl)C5(Cl)C24Cl (configuration not stated),Potency,[1],active: 48.2 µM and active: 46.9 µM
same,Potency,[3],"inconclusive: 6.8 µM [rising, full curve]"
same,Potency,[7],active: 38.3 µM and active: 52.6 µM
same,Potency,[6],active: 24.1 µM and active: 41.8 µM
C=C(C)[C@H]1Cc2c(ccc3c2O[C@@H]2COc4cc(OC)c(OC)cc4[C@@H]2C3=O)O1,Potency,[1],"active: 44.2 µM and active: 27.5 µM and inconclusive: 9.52 µM [cytotoxic, partial curve]"
same,Potency,[5],"inconclusive: 30.1 µM [activator, partial curve, poor fit]"
CCCCCCCCCCCCCCCCCCn1cc[n+](C)c1,Potency,[1],active: 24.4 µM
same,Potency,[4],active: 24.4 µM
same,Potency,[5],active: 19.4 µM
same,Potency,[3],"inconclusive: 9.72 µM [rising, partial curve, poor fit]"
same,Potency,[2],active: 24.4 µM
OCC(c1ccc(Cl)cc1)c1ccc(Cl)cc1,Potency,[1],"inconclusive: 43.6 µM [cytotoxic, partial curve]"
same,Potency,[7],active: 38.9 µM
CN(C)c1ccc(C(=O)c2ccc(N(C)C)cc2)cc1,Potency,[1],"inconclusive: 27.5 µM [cytotoxic, partial curve]"
same,Potency,[6],"active: 12.2 µM and inconclusive: 2.19 µM [activator, partial curve]"
Clc1ccc(COC(Cn2ccnc2)c2ccc(Cl)cc2Cl)cc1 (configuration not stated),Potency,[1],"inconclusive: 40.7 µM [cytotoxic, partial curve] and active: 48.8 µM and inconclusive: 23.9 µM [cytotoxic, single point]"
same,Potency,[4],"active: 45.7 µM and active: 54.7 µM and inconclusive: 13.4 µM [activator, partial curve, poor fit]"
same,Potency,[6],active: 45.7 µM and active: 54.7 µM and active: 15.1 µM
same,Potency,[2],"inconclusive: 51.3 µM [activator, partial curve, poor fit] and inconclusive: 54.7 µM [activator, single point]"
[O]=[Cr](=[O])([OH])[O][Cr](=[O])(=[O])[OH],Potency,[1],"inconclusive: 24.8 µM [cytotoxic, partial curve] and inconclusive: 21.8 µM [cytotoxic, partial curve]"
same,Potency,[6],"active: 12.4 µM and inconclusive: 24.5 µM [activator, partial curve]"
COC12CC[C@@]3(C[C@@H]1C(C)(O)C(C)(C)C)[C@H]1Cc4ccc(O)c5c4[C@@]3(CCN1CC1CC1)[C@H]2O5 (some centres not stated),Potency,[1],active: 48.6 µM
same,Potency,[4],"inconclusive: 24.4 µM [activator, partial curve, poor fit]"
same,Potency,[5],active: 24.4 µM
same,Potency,[7],active: 38.6 µM
CCc1cccc(C)c1N(C(=O)CCl)[C@@H](C)COC,Potency,[1],"inconclusive: 61.6 µM [cytotoxic, partial curve, poor fit]"
same,Potency,[7],"inconclusive: 54.9 µM [activator, single point]"
same,Potency,[2],"inconclusive: 43.6 µM [activator, partial curve]"
COc1ccc(C(c2ccc(OC)cc2)C(Cl)(Cl)Cl)cc1,Potency,[1],"inconclusive: 54.6 µM [cytotoxic, partial curve, poor fit]"
same,Potency,[2],"inconclusive: 48.7 µM [activator, partial curve]"
Cc1ccc(OP(=O)(Oc2ccccc2)Oc2ccccc2)cc1,Potency,[4],inactive
O=C(Nc1ccc(Br)cc1)c1cc(Br)cc(Br)c1O,Potency,[1],"inconclusive: 24.5 µM [cytotoxic, partial curve] and inconclusive: 17.4 µM [cytotoxic, full curve] and inconclusive: 13.4 µM [cytotoxic, partial curve, poor fit]"
same,Potency,[7],"inconclusive: 54.7 µM [activator, partial curve, poor fit]"
same,Potency,[2],active: 38.9 µM
CCCCCCCCCCCCCCCC[N+](C)(C)C,Potency,[1],"inconclusive: 26.6 µM [cytotoxic, partial curve, poor fit]"
same,Potency,[7],active: 23.7 µM and active: 43.6 µM and active: 23.9 µM
same,Potency,[6],"inconclusive: 12.3 µM [activator, full curve, poor fit]"
same,Potency,[2],"active: 21.1 µM and active: 49 µM and inconclusive: 16.9 µM [activator, single point]"
CO/N=C(/C1=NOCCO1)c1ccccc1Oc1ncnc(Oc2ccccc2Cl)c1F,Potency,[1],"inconclusive: 48.9 µM [cytotoxic, partial curve, poor fit]"
